Measured values reported in PMC9911399, “Two distinct binding modes provide the RNA-binding protein RbFox with extraordinary sequence specificity”.
Changes are numbered by the printed parent chain; changes in the protein carry UniProt numbers. The list shows a part of the results.

T1: RBFOX1 RRM RbFoxmut (Fox-RRM*) (Homo sapiens, UniProt Q9NWB1 109-208, R118D;E147R;N151S;E152T)
T1 sequence: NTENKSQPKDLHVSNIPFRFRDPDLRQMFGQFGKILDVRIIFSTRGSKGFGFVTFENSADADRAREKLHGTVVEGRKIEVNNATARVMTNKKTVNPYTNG

B1: UGGUUGA (DNA:RNA)
RNA: GGGAGACCGGAAUUCAGAUUGUCCUGGUUGAUUAAAUCCCGUCGUAGCCACCA
DNA 1: CAATCTGAATTCCGGTCTCCC
DNA 2: TGGTGGCTACGACGGGATT
B2: CGGCUCA (DNA:RNA)
RNA: B1 RNA with U25C, U28C, G30C
DNA 1: CAATCTGAATTCCGGTCTCCC
DNA 2: TGGTGGCTACGACGGGATT
B3: CCUGAGG (DNA:RNA)
RNA: B1 RNA with U25C, G26C, G27U, U28G, U29A, A31G
DNA 1: CAATCTGAATTCCGGTCTCCC
DNA 2: TGGTGGCTACGACGGGATT
B4: UAAUGGA (DNA:RNA)
RNA: B1 RNA with G26A, G27A, U29G
DNA 1: CAATCTGAATTCCGGTCTCCC
DNA 2: TGGTGGCTACGACGGGATT
B5: AGUCGAC (DNA:RNA)
RNA: B1 RNA with U25A, G27U, U28C, U29G, G30A, A31C
DNA 1: CAATCTGAATTCCGGTCTCCC
DNA 2: TGGTGGCTACGACGGGATT
B6: CAAGUCG (DNA:RNA)
RNA: B1 RNA with U25C, G26A, G27A, U28G, G30C, A31G
DNA 1: CAATCTGAATTCCGGTCTCCC
DNA 2: TGGTGGCTACGACGGGATT
B7: GUUCGCG (DNA:RNA)
RNA: GGGAGACCGGAAUUCAGAUUGUCCGUUCGCGUUAAAUCCCGUCGUAGCCACCA
DNA 1: CAATCTGAATTCCGGTCTCCC
DNA 2: TGGTGGCTACGACGGGATT
B8: GCGAAAU (DNA:RNA)
RNA: B7 RNA with U26C, U27G, C28A, G29A, C30A, G31U
DNA 1: CAATCTGAATTCCGGTCTCCC
DNA 2: TGGTGGCTACGACGGGATT
B9: UUGCCAG (DNA:RNA)
RNA: B7 RNA with G25U, U27G, G29C, C30A
DNA 1: CAATCTGAATTCCGGTCTCCC
DNA 2: TGGTGGCTACGACGGGATT
B10: GCGCUAC (DNA:RNA)
RNA: B7 RNA with U26C, U27G, G29U, C30A, G31C
DNA 1: CAATCTGAATTCCGGTCTCCC
DNA 2: TGGTGGCTACGACGGGATT
B11: CCCUAGA (DNA:RNA)
RNA: B1 RNA with U25C, G26C, G27C, U29A
DNA 1: CAATCTGAATTCCGGTCTCCC
DNA 2: TGGTGGCTACGACGGGATT
B12: UACUCGA (DNA:RNA)
RNA: B1 RNA with G26A, G27C, U29C
DNA 1: CAATCTGAATTCCGGTCTCCC
DNA 2: TGGTGGCTACGACGGGATT
B13: ACGAUGG (DNA:RNA)
RNA: B1 RNA with U25A, G26C, U28A, A31G
DNA 1: CAATCTGAATTCCGGTCTCCC
DNA 2: TGGTGGCTACGACGGGATT
B14: UUCUGAA (DNA:RNA)
RNA: B1 RNA with G26U, G27C, U29G, G30A
DNA 1: CAATCTGAATTCCGGTCTCCC
DNA 2: TGGTGGCTACGACGGGATT
B15: ACUGCAG (DNA:RNA)
RNA: B7 RNA with G25A, U26C, C28G, G29C, C30A
DNA 1: CAATCTGAATTCCGGTCTCCC
DNA 2: TGGTGGCTACGACGGGATT
B16: CAUACAU (DNA:RNA)
RNA: B7 RNA with G25C, U26A, C28A, G29C, C30A, G31U
DNA 1: CAATCTGAATTCCGGTCTCCC
DNA 2: TGGTGGCTACGACGGGATT
B17: GUGGAGG (DNA:RNA)
RNA: B7 RNA with U27G, C28G, G29A, C30G
DNA 1: CAATCTGAATTCCGGTCTCCC
DNA 2: TGGTGGCTACGACGGGATT
B18: CUGCUUU (DNA:RNA)
RNA: B7 RNA with G25C, U27G, G29U, C30U, G31U
DNA 1: CAATCTGAATTCCGGTCTCCC
DNA 2: TGGTGGCTACGACGGGATT
B19: UCACGGC (DNA:RNA)
RNA: B7 RNA with G25U, U26C, U27A, C30G, G31C
DNA 1: CAATCTGAATTCCGGTCTCCC
DNA 2: TGGTGGCTACGACGGGATT
B20: AAAUAGU (DNA:RNA)
RNA: B1 RNA with U25A, G26A, G27A, U29A, A31U
DNA 1: CAATCTGAATTCCGGTCTCCC
DNA 2: TGGTGGCTACGACGGGATT

molecular target: T1, RBFOX1 RRM RbFoxmut (Fox-RRM*); test: EMSA; HiTS-Eq, 1 nM pool, 10 min; buffer printed only for the single-RNA assays: 10 mM Tris pH 7.5, 150 mM NaCl, 3.4 mM EDTA, 0.001% NP-40, 30 C; conditions: tags: His6 N-terminal (pET28a); label: 5' 32P
Method in brief: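 These values rest on relative association constants, computed from read-count changes of each RNA species versus the control reaction and normalised to the cognate motif. Reads came from free RNA recovered by 8% native PAGE after purified RbFox RRM (wild type or mutant) at increasing concentrations was equilibrated for 10 min in 50 µL with 1 nM of a 5′-radiolabelled pool with 7 randomized nucleotides and DNA-annealed flanks.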

Binder	binding signal
B1	0.318 KA relative to UGCAUGU
B2	0.0753 KA relative to UGCAUGU
B3	0.0748 KA relative to UGCAUGU
B4	0.0542 KA relative to UGCAUGU
B5	0.0833 KA relative to UGCAUGU
B6	0.0872 KA relative to UGCAUGU
B7	0.113 KA relative to UGCAUGU
B8	0.0864 KA relative to UGCAUGU
B9	0.0987 KA relative to UGCAUGU
B10	0.0905 KA relative to UGCAUGU
B11	0.116 KA relative to UGCAUGU
B12	0.0874 KA relative to UGCAUGU
B13	0.103 KA relative to UGCAUGU
B14	0.0579 KA relative to UGCAUGU
B15	0.0925 KA relative to UGCAUGU
B16	0.0896 KA relative to UGCAUGU
B17	0.108 KA relative to UGCAUGU
B18	0.0878 KA relative to UGCAUGU
B19	0.0983 KA relative to UGCAUGU
B20	0.0888 KA relative to UGCAUGU
